# Results as given in the supplement of paper PMC4604168 (melanoma cell lines).
# This is one part of the list. Most values come without repeats; read them as rough.
# Tested on: A2058
# Assay: cell count relative to DMSO control; melanoma cells; higher = more viable cells
# Details: library dose: low library concentration; 72 h
# 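Also: cell number obtained by counting DAPI-stained nuclei in high-throughput microscope images with image analysis software, screen run in 1,536-well plates.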
row,SMILES,cell count [%]
1,"Cc1cc(N2CCOCC2)cc2[nH]c(-c3c(NC[C@@H](O)c4cccc(Cl)c4)cc[nH]c3=O)nc12 + O=C(Oc1ccc([N+](=O)[O-])cc1)N1CCC(C(O)(c2ccc3c(c2)OCO3)c2ccc3c(c2)OCO3)CC1 [JZL184] (first compound 0.2 µM, partner dose 1 µM)",100
2,"COc1cc2c(Oc3ccc4[nH]c(C)cc4c3F)ncnc2cc1OCCCN1CCCC1 [cediranib] + O=C(Oc1ccc([N+](=O)[O-])cc1)N1CCC(C(O)(c2ccc3c(c2)OCO3)c2ccc3c(c2)OCO3)CC1 [JZL184] (first compound 0.4 µM, partner dose 1 µM)",107
3,"CCN(CC)CCNC(=O)c1c(C)[nH]c(/C=C2\C(=O)Nc3ccc(F)cc32)c1C [sunitinib] + C[As](C)SC[C@H](NC(=O)CC[C@H](N)C(=O)O)C(=O)NCC(=O)O [Darinaparsin] (first compound 0.4 µM, partner dose 0.4 µM)",120
4,"COc1ccc2c(c1)CCC1C2CCC2(C)C(NCCCCCCN3C(=O)C=CC3=O)CCC12 (configuration not stated) + C/C(O)=C(\C#N)C(=O)Nc1cc(Br)ccc1Br [LFM-A13] (first compound 0.4 µM, partner dose 2 µM)",94
5,"COc1cc2c(Oc3ccc4[nH]c(C)cc4c3F)ncnc2cc1OCCCN1CCCC1 [cediranib] + Cc1cc(SCc2sc(-c3ccc(C(F)(F)F)c(F)c3)nc2C)ccc1OCC(=O)O [GW0742] (first compound 0.4 µM, partner dose 2 µM)",113
6,"Cn1cncc1[C@@](N)(c1ccc(Cl)cc1)c1ccc2c(c1)c(-c1cccc(Cl)c1)cc(=O)n2C [tipifarnib] + Cc1cc(SCc2sc(-c3ccc(C(F)(F)F)c(F)c3)nc2C)ccc1OCC(=O)O [GW0742] (first compound 0.01 µM, partner dose 2 µM)",87.7
7,"O=C(Nc1ccccc1)c1cc([N+](=O)[O-])ccc1Cl + Cc1cc(SCc2sc(-c3ccc(C(F)(F)F)c(F)c3)nc2C)ccc1OCC(=O)O [GW0742] (first compound 2 µM, partner dose 2 µM)",97.4
8,"O=C(Oc1ccc([N+](=O)[O-])cc1)N1CCC(C(O)(c2ccc3c(c2)OCO3)c2ccc3c(c2)OCO3)CC1 + O=c1cc(-c2cccc3c2Sc2ccccc2S3)oc(N2CCOCC2)c1 [KU55933] (first compound 1 µM, partner dose 1 µM)",92.3
9,"C[C@]1(c2nc3c(C(N)=O)cccc3[nH]2)CCCN1 [Veliparib] + C/C(O)=C(\C#N)C(=O)Nc1cc(Br)ccc1Br [LFM-A13] (first compound 1.4 µM, partner dose 2 µM)",97.5
10,"O=C(Nc1ccccc1)c1cc([N+](=O)[O-])ccc1Cl + O=C(Oc1ccc([N+](=O)[O-])cc1)N1CCC(C(O)(c2ccc3c(c2)OCO3)c2ccc3c(c2)OCO3)CC1 [JZL184] (first compound 2 µM, partner dose 1 µM)",97.7
11,"CCc1ccc(CCOc2ccc(CC3SC(=O)NC3=O)cc2)nc1 (configuration not stated) [pioglitazone] + O=C(Oc1ccc([N+](=O)[O-])cc1)N1CCC(C(O)(c2ccc3c(c2)OCO3)c2ccc3c(c2)OCO3)CC1 [JZL184] (first compound 2 µM, partner dose 1 µM)",101
12,"O=C(Nc1cc(C(F)(F)F)cc(C(F)(F)F)c1)c1cc(Cl)ccc1O + Cn1cc(C2=C(c3cn(C4CCN(Cc5ccccn5)CC4)c4ccccc34)C(=O)NC2=O)c2ccccc21 [Enzastaurin] (first compound 0.016 µM, partner dose 0.8 µM)",114
13,"Cc1ccc(Nc2nccc(N(C)c3ccc4c(C)n(C)nc4c3)n2)cc1S(N)(=O)=O [Pazopanib] + Cn1cc(C2=C(c3cn(C4CCN(Cc5ccccn5)CC4)c4ccccc34)C(=O)NC2=O)c2ccccc21 [Enzastaurin] (first compound 0.4 µM, partner dose 0.8 µM)",89.3
14,"O=C(Nc1cc(C(F)(F)F)cc(C(F)(F)F)c1)c1cc(Cl)ccc1O + N.N.[Cl][Pt][Cl] [cisplatin] (first compound 0.016 µM, partner dose 1.6 µM)",109
15,"O=C(Nc1cccc(Cl)c1)Nc1ncc(CCNc2ncnc3ccsc23)s1 + O=C(Oc1ccc([N+](=O)[O-])cc1)N1CCC(C(O)(c2ccc3c(c2)OCO3)c2ccc3c(c2)OCO3)CC1 [JZL184] (first compound 0.0008 µM, partner dose 1 µM)",103
16,"N#Cc1c(O)c2c(-c3ccc(-c4ccccc4O)cc3)csc2[nH]c1=O + Cc1cc(SCc2sc(-c3ccc(C(F)(F)F)c(F)c3)nc2C)ccc1OCC(=O)O [GW0742] (first compound 2 µM, partner dose 2 µM)",92.8

row,SMILES,cell count [%]
1,"O=C(Nc1cccc(Cl)c1)Nc1ncc(CCNc2ncnc3ccsc23)s1 + Cc1cc(SCc2sc(-c3ccc(C(F)(F)F)c(F)c3)nc2C)ccc1OCC(=O)O [GW0742] (first compound 0.0008 µM, partner dose 2 µM)",95.5
2,"O=C(Oc1ccc([N+](=O)[O-])cc1)N1CCC(C(O)(c2ccc3c(c2)OCO3)c2ccc3c(c2)OCO3)CC1 + Cn1cc(/C=C2\C(=O)Nc3cccnc32)c2ccccc21 [GW441756] (first compound 1 µM, partner dose 0.4 µM)",102
3,"Cn1cnc2c(F)c(Nc3ccc(Br)cc3Cl)c(C(=O)NOCCO)cc21 [selumetinib] + C[As](C)SC[C@H](NC(=O)CC[C@H](N)C(=O)O)C(=O)NCC(=O)O [Darinaparsin] (first compound 0.015 µM, partner dose 0.4 µM)",107
4,"CN(C)S(=O)(=O)c1ccc2c(c1)/C(=C/c1cc3c([nH]1)CCCC3)C(=O)N2 + Cc1cc(SCc2sc(-c3ccc(C(F)(F)F)c(F)c3)nc2C)ccc1OCC(=O)O [GW0742] (first compound 0.4 µM, partner dose 2 µM)",112
5,"C/C(O)=C(\C#N)C(=O)Nc1cc(Br)ccc1Br + CC(C)CCN1c2nc(Nc3cc(F)c(O)c(F)c3)ncc2N(C)C(=O)C1C [BID1870] (first compound 2 µM, partner dose 0.2 µM)",95.3
6,"Cc1cc(N2CCOCC2)cc2[nH]c(-c3c(NC[C@@H](O)c4cccc(Cl)c4)cc[nH]c3=O)nc12 + C/C(O)=C(\C#N)C(=O)Nc1cc(Br)ccc1Br [LFM-A13] (first compound 0.2 µM, partner dose 2 µM)",113
7,"CN(C)S(=O)(=O)c1ccc2c(c1)/C(=C/c1cc3c([nH]1)CCCC3)C(=O)N2 + O=C(Oc1ccc([N+](=O)[O-])cc1)N1CCC(C(O)(c2ccc3c(c2)OCO3)c2ccc3c(c2)OCO3)CC1 [JZL184] (first compound 0.4 µM, partner dose 1 µM)",103
8,"C/C(O)=C(\C#N)C(=O)Nc1cc(Br)ccc1Br + O=c1cc(-c2cccc3c2Sc2ccccc2S3)oc(N2CCOCC2)c1 [KU55933] (first compound 2 µM, partner dose 1 µM)",88.5
9,"C/C(O)=C(\C#N)C(=O)Nc1cc(Br)ccc1Br + CCCCCCCCCCCC1=C(O)C(=O)C=C(O)C1=O [Embelin] (first compound 2 µM, partner dose 1.2 µM)",97.4
10,"C/C(O)=C(\C#N)C(=O)Nc1cc(Br)ccc1Br + O=C(Oc1ccc([N+](=O)[O-])cc1)N1CCC(C(O)(c2ccc3c(c2)OCO3)c2ccc3c(c2)OCO3)CC1 [JZL184] (first compound 2 µM, partner dose 1 µM)",98.6
11,"N#Cc1c(O)c2c(-c3ccc(-c4ccccc4O)cc3)csc2[nH]c1=O + O=C(Oc1ccc([N+](=O)[O-])cc1)N1CCC(C(O)(c2ccc3c(c2)OCO3)c2ccc3c(c2)OCO3)CC1 [JZL184] (first compound 2 µM, partner dose 1 µM)",110
12,"Cn1nnc2c(C(N)=O)ncn2c1=O [temozolomide] + Cc1cc(SCc2sc(-c3ccc(C(F)(F)F)c(F)c3)nc2C)ccc1OCC(=O)O [GW0742] (first compound 2 µM, partner dose 2 µM)",72.2
13,"NC1(c2ccc(-c3nc4ccn5c(=O)[nH]nc5c4cc3-c3ccccc3)cc2)CCC1 + C[As](C)SC[C@H](NC(=O)CC[C@H](N)C(=O)O)C(=O)NCC(=O)O [Darinaparsin] (first compound 0.4 µM, partner dose 0.4 µM)",87.9
14,"COc1ccc(-c2ccc3c(N4CCOCC4)nc(N4C[C@@H](C)O[C@@H](C)C4)nc3n2)cc1CO + O=C(Oc1ccc([N+](=O)[O-])cc1)N1CCC(C(O)(c2ccc3c(c2)OCO3)c2ccc3c(c2)OCO3)CC1 [JZL184] (first compound 0.02 µM, partner dose 1 µM)",95.8
15,"Cc1ccc(NC(=O)c2cccc(N(C)C)c2)cc1NC(=O)c1ccc(O)cc1 + O=C(Oc1ccc([N+](=O)[O-])cc1)N1CCC(C(O)(c2ccc3c(c2)OCO3)c2ccc3c(c2)OCO3)CC1 [JZL184] (first compound 2 µM, partner dose 1 µM)",88.1
16,"Cn1sc(=O)n(Cc2ccccc2)c1=O + C[C@]12O[C@H](C[C@]1(O)CO)n1c3ccccc3c3c4c(c5c6ccccc6n2c5c31)CNC4=O [Lestaurtinib] (first compound 0.4 µM, partner dose 0.004 µM)",109
